Source: PubChem BioAssay AID624417 (National Center for Advancing Translational Sciences (NCATS), 2012)
The whole screen tested about 410,000 compounds, of which about 6,400 (1.6%) were called active. Inconclusive means that the source gave no clear call. Such entries were picked first, then a sample of the others. The call rests on the fitted dose curve; in most records, active means well fitted inhibition curve with a large enough effect; inconclusive means small, poorly fitted or top-dose-only effect; inactive means no such curve, though single readings can be large or run the other way. Potencies beside an inconclusive call are fits to weak or partial responses and may not hold up.

biological target: Glucagon-like peptide 1 receptor (Homo sapiens) (UniProt P43220); assay: qHTS of GLP-1 Receptor Inverse Agonists (Inhibition Mode); details: HEK293 GLP-1R CRE-luciferase, luminescence, 24 h, GLP-1R form is constitutively active; series mostly up to 38.3 µM; further: nearly all actives have a fitted effect of over 55% in size
Sequence of UniProt P43220 (P43220 whole entry, looked up): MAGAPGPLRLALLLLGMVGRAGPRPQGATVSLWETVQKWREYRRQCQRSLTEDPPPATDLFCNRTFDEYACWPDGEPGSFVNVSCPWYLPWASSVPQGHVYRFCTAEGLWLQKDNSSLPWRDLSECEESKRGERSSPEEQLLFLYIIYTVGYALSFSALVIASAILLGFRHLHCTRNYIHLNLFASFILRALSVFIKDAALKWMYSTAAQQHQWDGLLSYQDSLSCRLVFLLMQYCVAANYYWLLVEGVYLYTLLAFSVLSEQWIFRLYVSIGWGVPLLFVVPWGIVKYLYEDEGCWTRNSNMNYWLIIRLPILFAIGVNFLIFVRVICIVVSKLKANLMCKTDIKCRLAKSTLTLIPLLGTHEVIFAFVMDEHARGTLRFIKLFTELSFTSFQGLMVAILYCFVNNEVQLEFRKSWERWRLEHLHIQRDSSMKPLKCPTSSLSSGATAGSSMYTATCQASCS
How it was run: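 Constitutively active GLP-1R drives a cAMP-responsive luciferase in stably transfected HEK293 cells; test compounds are added after overnight (12 h) attachment and left 24 hr, and signal loss in luminescence marks inhibition.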
Potency means the concentration at half of the fitted maximal effect; tags describe the fitted curve by direction and shape.

Potency, inactive:
O=C(CN1C(=O)CSc2ccc(S(=O)(=O)N3CCCC3)cc21)NCc1ccccc1Cl
Cc1nn(-c2ccccc2)c(C)c1C(=O)NCCc1ccccc1
CC(C)(C)c1ccc(OCCC(=O)OCC(=O)Nc2cccnc2Cl)cc1
N#C/C(=C/c1ccc(N2CCCCCC2)o1)c1cccc(F)c1
CC(C)c1ccc(Nc2nnc(SCC(=O)Nc3ncc(S(=O)(=O)c4ccc([N+](=O)[O-])cc4)s3)s2)cc1
Cc1ccc(S(=O)(=O)CCC(=O)OCC(=O)NC(=O)c2ccccc2)cc1
O=C(c1ccc(CS(=O)Cc2ccccc2Cl)o1)N1CCN(c2ccccc2)CC1 (stereo not drawn)
O=C(CC(=O)c1ccccc1)Nc1cccnc1Cl
O=C(CCN1C(=O)c2ccccc2Sc2ncccc21)Nc1ccc(F)cc1
COc1ccc(-c2cc(=O)c3c(O)c(OC)c(OC)c(OC)c3o2)cc1
CC(=O)N1CCN(Cc2nc(C(c3ccccc3)c3ccccc3)no2)CC1
CCOC(=O)N1CCC(NC(=O)CCS(=O)(=O)c2ccc3c(c2)CCN3C(=O)CC)CC1
COc1cc2c(cc1NC(=O)c1ccccc1C)n(C)c(=O)n2C

Potency, inconclusive:
OC(c1ccccc1)(c1nc(-c2ccc(Cl)cc2)cs1)C(F)(F)F (stereo not drawn) 12.6 µM [inhibitor, partial curve, poor fit]
O=C(O)c1cccc(-n2c(O)c(C=C3N=c4ccccc4=N3)sc2=S)c1 1.78 µM [inhibitor, partial curve, poor fit]
O=C(Nc1ccccc1Cl)[C@H](CSCc1ccccc1)N1Cc2ccccc2C1=O 22.4 µM [inhibitor, single point]
COc1ccccc1N1CCN(S(=O)(=O)c2ccc(F)c(C(=O)Nc3ccc(Cl)cc3C(F)(F)F)c2)CC1 28.2 µM [inhibitor, single point]
Nc1c(C(=O)NCc2ccco2)c2nc3ccccc3nc2n1CCc1ccccc1 28.2 µM [inhibitor, single point]
Cc1ccc(C(C)NC(=O)Cc2cccs2)cc1C (stereo not drawn) 5.62 µM [inhibitor, full curve, poor fit]
Cc1ccc(S(=O)(=O)NCCC(=O)OCC(=O)N(Cc2ccccc2)C(C)(C)C)cc1C 12.6 µM [inhibitor, partial curve, poor fit]
NC(=O)c1c(NC(=O)CN2CCN(S(=O)(=O)c3ccccc3)CC2)sc2c1CCC2 8.91 µM [inhibitor, partial curve, poor fit]
Cc1ccc(NC(=O)Cc2ccccc2F)cc1S(=O)(=O)N1CCCCCC1 11.2 µM [inhibitor, partial curve, poor fit]
O=C(c1ccc2c(c1)CCN2S(=O)(=O)c1ccccc1)N1CCN(c2ccccc2F)CC1 11.2 µM [inhibitor, partial curve]
COc1ccc(C[C@H]2CN3C(=NC[C@@H]3Cc3ccccc3)N2CCNC(=O)c2ccc(C)c(Br)c2)cc1 28.2 µM [inhibitor, single point]
CCc1ccccc1-n1cnc2cc(C(=O)NC3CCCCCC3)ccc21 12.6 µM [inhibitor, single point]
Cc1ccc(O)c(-c2cc3ccccc3[nH]2)c1 28.2 µM [inhibitor, single point]
O=C(O)c1ccccc1N1C(=O)C2C3c4ccccc4C(Br)(c4ccccc43)C2C1=O (stereo not drawn) 31.6 µM [inhibitor, partial curve, poor fit]
COc1ccc(CCN(C)CC(O)COc2c(C)ccc(C)c2C)cc1OC (stereo not drawn) 10 µM [inhibitor, single point]
CCc1cccc(NC(=S)N(CCOC)C(C)c2ccco2)c1 (stereo not drawn) 28.2 µM [inhibitor, single point]
Cc1c(Cl)cccc1N(CC(=O)NC1CCCCC1)S(C)(=O)=O 17.8 µM [inhibitor, partial curve, poor fit]
COc1ccc(-c2cc(-c3ccc(Cl)cc3)n[nH]2)c(O)c1 28.2 µM [inhibitor, single point]
O=C(CSc1cccc(C(F)(F)F)c1)NC(=O)NCc1ccco1 28.2 µM [inhibitor, single point]
COc1ccc(NC(=S)N2CCC(c3ccccc3)C2)cc1 (stereo not drawn) 11.2 µM [inhibitor, partial curve, poor fit]
COc1ccc(NC(=O)c2c(Nc3ccccc3)sc(C(=O)c3ccc(F)cc3)c2N)cc1 2.51 µM [inhibitor, full curve]
CCC(c1nnnn1-c1ccc2c(c1)OCCO2)N1CCN(c2ccc(F)cc2)CC1 (stereo not drawn) 2.51 µM [inhibitor, full curve]
COc1ccc(CN(Cc2ccco2)C(=O)COc2ccccc2OC)cc1 22.4 µM [inhibitor, single point]
CCOC(=O)c1cc2c(ccn2C)n1CC(=O)N(Cc1ccccc1)c1ccc(F)cc1 11.2 µM [inhibitor, single point]
CCc1ccc2occ(CC(=O)Nc3ccc(OC)c(Cl)c3)c2c1 10 µM [inhibitor, single point]
CCOc1ccc(C(=O)Oc2c(Sc3ccccc3)c(C)nn2C(C)(C)C)cc1OCC 12.6 µM [inhibitor, partial curve, poor fit]
Cc1ccc(NC(=O)c2cccc(S(=O)(=O)N(C)C3CCCCC3)c2)nc1 28.2 µM [inhibitor, single point]
CC(/C=C/c1ccccc1)=N\Nc1nc(C)cc(C)n1 20 µM [inhibitor, single point]
CC(C)c1ccc(OCCCN2CCCC2)cc1 31.6 µM [inhibitor, partial curve, poor fit]
COc1ccc(N2CC(C(=O)N3CCC4(CC3)CC(=O)c3ccccc3O4)CC2=O)cc1 (stereo not drawn) 12.6 µM [inhibitor, single point]
CCOC(=O)c1ccc(NC(=O)c2oc3c(c2C)-c2nn(Cc4ccccc4Cl)cc2CC3)cc1 28.2 µM [inhibitor, single point]
CC1(C)CCCC(C)(C)N1CC(O)COCCOc1ccc(Br)cc1 (stereo not drawn) 10 µM [inhibitor, partial curve, poor fit]
Cc1ccc2nc(C)cc(SCC(=O)N/N=C/c3ccco3)c2c1 3.98 µM [inhibitor, partial curve, poor fit]
CC1CCCCC1NC(=O)NC(=O)CCl (stereo not drawn) 14.1 µM [inhibitor, partial curve, poor fit]
CCOC(=O)c1c(NC(=O)c2ccc(S(=O)(=O)N(C)CC3CCCO3)cc2)sc2c1CCN(C)C2 (stereo not drawn) 28.2 µM [inhibitor, single point]
CCc1ccc2nc(N(CCN(C)C)C(=O)c3ccc4ncsc4c3)sc2c1 7.08 µM [inhibitor, single point]
COc1ccccc1/C=C1\SC(=S)N(NS(=O)(=O)c2ccccc2)C1=O 12.6 µM [inhibitor, partial curve, poor fit]
S=C(Nc1ccccc1)N1CCCN1c1ccccc1 10 µM [inhibitor, single point]
CCSc1nnc(NC(=O)[C@@H](NC(=O)c2ccc(C(C)(C)C)cc2)C(C)C)s1 22.4 µM [inhibitor, single point]
COc1ccc(CN(C(=O)CSc2nnc(-c3ccccc3F)o2)c2ccc(F)cc2)cc1 22.4 µM [inhibitor, single point]
Cc1c(C(C)(C)O)[nH]c2ccc(C(F)(F)F)cc12 10 µM [inhibitor, partial curve]
COc1cccc(-c2cc(C(F)(F)F)n3ncc(C(=O)N4CCc5ccccc5C4)c3n2)c1 1.26 µM [inhibitor, partial curve, poor fit]
COc1cccc(-c2csc(N3CCN(C(=S)Nc4ccccc4)CC3)n2)c1 14.1 µM [inhibitor, single point]
Brc1ccc2c(c1)C(c1ccc(N3CCOCC3)cc1)=NNC(c1cccs1)=N2 1.78 µM [inhibitor, partial curve, poor fit]
CCOC(=O)N1C(=O)[C@](c2ccc(Cl)cc2)(C(C)C)N1C(=O)OCC 31.6 µM [inhibitor, partial curve, poor fit]
Cc1cccc(C(=O)Nc2cccc(OC(=O)c3cccc(C)c3)c2)c1 28.2 µM [inhibitor, single point]
O=C(Nc1ccc(Oc2cccnc2)cc1)C1CCN(Cc2ccccc2F)CC1 10 µM [inhibitor, single point]
O=S(=O)(c1cc(Br)ccc1Br)N1CCCCCC1 10 µM [inhibitor, partial curve, poor fit]

Potency, active:
COc1ccccc1NS(=O)(=O)c1cc(C(=O)N2CCN(C/C=C/c3ccccc3)CC2)ccc1C 10 µM
Cc1ccc2sc(N(CCCN(C)C)C(=O)c3ccc(S(=O)(=O)N4CCOCC4)cc3)nc2c1C 10 µM
